Assay results reported in ChEMBL document CHEMBL4138110, “The relevance of Ki calculation for bi-substrate enzymes illustrated by kinetic evaluation of a novel lysine (K) acetyltransferase 8 inhibitor” (Eur J Med Chem, 2017).

tested on: not listed separately; assay: Antioxidant activity assessed as DPPH radical scavenging activity incubated for 15 mins; type: functional

Row | Structure (SMILES) | pEC50
1 | Oc1ccnc2ccccc12 | 3.00
2 | O=[N+]([O-])c1ccc(O)c2ccccc12 | < 3.00
3 | NC(=O)c1ccc(O)c2ccccc12 | 3.37
4 | CC(=O)Oc1ccc(N)c2ccccc12 | < 3.00
5 | N#Cc1ccc(N)c2ccccc12 | 3.00
6 | COc1cc(O)c2ccccc2c1N | 4.59
7 | Nc1ccc(CO)c2ccccc12 | 3.00
8 | NCc1ccc(O)c2ccccc12 | 3.59
9 | Nc1ccc(O)cc1 [4-AMINOPHENOL] | 4.70

Further compounds by rising pEC50, results first:

Row | pEC50 | Structure (SMILES)
10 | 4.64 | COc1ccc(N)c2ccccc12
11 | 4.68 | Nc1ccc(O)c2ccccc12
12 | 4.72 | Nc1ccc(O)c2ccncc12
13 | 4.74 | CN(C)c1ccc(O)c2ccccc12
14 | 4.74 | O=C(Cc1ccccc1)Nc1ccc(O)c2ccccc12
15 | 4.74 | CCCCCCCCCC(=O)Nc1ccc(O)c2ccccc12
16 | 4.74 | CS(=O)(=O)Nc1ccc(O)c2ccccc12
17 | 4.80 | CCC(=O)Nc1ccc(O)c2ccccc12
18 | 4.80 | Cc1ccc(S(=O)(=O)Nc2ccc(O)c3ccccc23)cc1
19 | 4.85 | CC(=O)Nc1ccc(O)c2ccccc12
20 | 5.15 | Nc1ccc(OCc2ccccc2)c2ccccc12

tested on: not listed separately; assay: Stability of compound in 50 mM HEPES buffer up to 4 hrs by HPLC analysis; type: physicochemical

Row | Stability | Structure (SMILES)
21 | Stable | Nc1ccc(O)c2ccccc12

target: Histone deacetylase 3/Nuclear receptor corepressor 2 (HDAC3/NCoR2) (Homo sapiens, UniProt O15379); assay: Inhibition of full length recombinant human C-terminal His-tagged HDAC3/N-terminal GST-tagged NCOR2 (395 to 489 residues) co-expressed in baculovirus infected sf9 cells using Boc-Lys(epsioln-Ac)-AMC as substrate after 90 mins by fluorescence assay
Chain of UniProt O15379 (O15379 whole entry, the tested form may be a part): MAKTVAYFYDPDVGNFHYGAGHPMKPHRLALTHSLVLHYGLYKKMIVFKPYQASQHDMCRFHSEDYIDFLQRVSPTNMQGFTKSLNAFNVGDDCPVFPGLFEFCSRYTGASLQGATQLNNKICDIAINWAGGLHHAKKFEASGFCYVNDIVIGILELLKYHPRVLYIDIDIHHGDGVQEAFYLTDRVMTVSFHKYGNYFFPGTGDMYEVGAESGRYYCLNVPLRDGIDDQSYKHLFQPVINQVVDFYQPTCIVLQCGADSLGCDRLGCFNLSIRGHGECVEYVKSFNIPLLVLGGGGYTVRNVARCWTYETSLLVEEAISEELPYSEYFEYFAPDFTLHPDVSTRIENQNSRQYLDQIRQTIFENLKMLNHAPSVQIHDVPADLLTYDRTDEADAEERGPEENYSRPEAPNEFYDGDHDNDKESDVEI
Chain of UniProt O15379 (Q9Y618 whole entry, further chain, the tested form may be a part): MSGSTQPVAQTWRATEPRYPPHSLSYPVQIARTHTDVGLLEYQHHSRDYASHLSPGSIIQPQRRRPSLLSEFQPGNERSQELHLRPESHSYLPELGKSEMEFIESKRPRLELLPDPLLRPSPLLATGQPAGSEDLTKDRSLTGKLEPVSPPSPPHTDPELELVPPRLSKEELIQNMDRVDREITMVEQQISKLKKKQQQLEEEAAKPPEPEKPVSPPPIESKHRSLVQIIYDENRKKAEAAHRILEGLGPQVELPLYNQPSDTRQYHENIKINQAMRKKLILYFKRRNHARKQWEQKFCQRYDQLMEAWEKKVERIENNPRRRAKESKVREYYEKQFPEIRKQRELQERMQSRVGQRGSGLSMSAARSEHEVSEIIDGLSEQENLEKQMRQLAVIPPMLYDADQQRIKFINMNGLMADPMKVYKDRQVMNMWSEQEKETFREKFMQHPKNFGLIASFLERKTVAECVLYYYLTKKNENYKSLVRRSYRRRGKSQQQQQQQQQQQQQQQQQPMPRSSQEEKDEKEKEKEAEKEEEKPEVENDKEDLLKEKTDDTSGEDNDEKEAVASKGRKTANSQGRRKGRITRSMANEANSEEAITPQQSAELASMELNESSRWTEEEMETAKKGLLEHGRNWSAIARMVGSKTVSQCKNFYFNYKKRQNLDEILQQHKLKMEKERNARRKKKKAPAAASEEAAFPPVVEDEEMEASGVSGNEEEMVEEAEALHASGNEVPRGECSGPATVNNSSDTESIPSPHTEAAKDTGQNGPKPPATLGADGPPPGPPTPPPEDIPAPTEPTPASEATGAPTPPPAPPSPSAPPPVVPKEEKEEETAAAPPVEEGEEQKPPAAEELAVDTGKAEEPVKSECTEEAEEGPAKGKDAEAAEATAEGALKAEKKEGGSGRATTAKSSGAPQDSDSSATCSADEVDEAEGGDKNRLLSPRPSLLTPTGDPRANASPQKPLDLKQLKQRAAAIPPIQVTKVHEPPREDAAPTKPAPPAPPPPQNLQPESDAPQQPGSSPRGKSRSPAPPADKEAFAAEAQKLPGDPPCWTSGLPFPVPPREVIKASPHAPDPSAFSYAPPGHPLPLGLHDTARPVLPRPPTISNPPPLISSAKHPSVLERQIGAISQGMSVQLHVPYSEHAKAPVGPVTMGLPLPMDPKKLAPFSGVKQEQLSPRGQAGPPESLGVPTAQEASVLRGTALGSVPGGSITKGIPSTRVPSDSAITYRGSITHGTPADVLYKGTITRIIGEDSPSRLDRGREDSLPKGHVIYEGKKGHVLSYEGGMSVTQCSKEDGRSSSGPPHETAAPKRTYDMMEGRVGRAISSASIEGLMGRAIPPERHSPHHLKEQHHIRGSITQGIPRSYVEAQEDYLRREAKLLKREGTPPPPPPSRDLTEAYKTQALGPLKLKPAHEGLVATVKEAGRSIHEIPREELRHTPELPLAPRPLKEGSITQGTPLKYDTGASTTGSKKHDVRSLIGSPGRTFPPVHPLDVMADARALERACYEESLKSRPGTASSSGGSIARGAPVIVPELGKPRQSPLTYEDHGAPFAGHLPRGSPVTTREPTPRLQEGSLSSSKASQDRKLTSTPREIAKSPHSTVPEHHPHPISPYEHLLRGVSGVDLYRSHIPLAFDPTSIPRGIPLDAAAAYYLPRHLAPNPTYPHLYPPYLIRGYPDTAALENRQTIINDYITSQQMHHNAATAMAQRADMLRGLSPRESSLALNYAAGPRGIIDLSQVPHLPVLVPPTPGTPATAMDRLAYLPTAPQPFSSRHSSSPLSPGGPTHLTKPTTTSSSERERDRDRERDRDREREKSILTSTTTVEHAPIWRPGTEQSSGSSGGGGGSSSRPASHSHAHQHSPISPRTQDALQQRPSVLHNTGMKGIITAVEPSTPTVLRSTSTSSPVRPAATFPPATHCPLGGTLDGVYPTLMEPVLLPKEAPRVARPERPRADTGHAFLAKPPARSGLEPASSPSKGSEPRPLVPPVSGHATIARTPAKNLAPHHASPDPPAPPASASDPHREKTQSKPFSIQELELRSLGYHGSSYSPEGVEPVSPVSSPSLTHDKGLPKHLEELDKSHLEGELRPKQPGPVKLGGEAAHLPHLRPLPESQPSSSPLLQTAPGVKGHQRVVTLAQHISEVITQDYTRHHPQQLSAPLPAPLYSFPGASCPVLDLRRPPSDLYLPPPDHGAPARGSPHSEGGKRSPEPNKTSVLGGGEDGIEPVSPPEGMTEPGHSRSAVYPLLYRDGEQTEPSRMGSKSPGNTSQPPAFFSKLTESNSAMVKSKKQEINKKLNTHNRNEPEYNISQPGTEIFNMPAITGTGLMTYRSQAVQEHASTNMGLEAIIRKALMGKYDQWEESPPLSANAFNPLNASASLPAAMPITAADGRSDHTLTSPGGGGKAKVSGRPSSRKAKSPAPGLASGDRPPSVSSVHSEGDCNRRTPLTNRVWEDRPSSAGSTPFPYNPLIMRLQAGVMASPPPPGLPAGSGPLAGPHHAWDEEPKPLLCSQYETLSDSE

Row | pIC50 | Structure (SMILES)
22 | 4.05 to 4.10 | Nc1ccc(O)c2ccccc12

pEC50, pIC50: −log10 of the molar value.
